Reference: the supplement of paper PMC12632987
The full ranking holds about 4,500 sequences; the median of “median log2 fold change of GCK-ALFA target abundance (FLAG IP / Myc IP barcode read proportion)” is about 0.078, and the lowest 2% start at about -0.6. Some of the results follow.

B1: GBRAP_14_3770 (protein)
chain: MEKKEEIIREEAEEIVELLGEIVPEKAEEFREAVEEVREETIKEMKETGDVDAALDKGEEELVARIKEISADLDPETQAELVAVVRVGMGNAKLELDELE
B2: GBRAP_160_3996 (protein)
chain: SEKKEKIFKEIKEILEEAYELMKGESPEERLAIARVSAGEILLILDESGLVSDETEEEVDKILDEFVATVAANPDMSDEELKKLLEETFKKIKEVIEKNL
B3: GBRAP_52_6002 (protein)
chain: MEERMRALAEEVMALYLAGDREGARALMREVAATLSEEELLAFARELGRLALAHTPEAPEEALEALLDFEDIAEEEGASEEVIAELTAAAARVAALAEAQ
B4: GBRAP_52_5890 (protein)
chain: DLEEAVKLLREAVKAQKAGKEEEAKKILKEIVEKFDEETILAAVERLAEEVKTKSLEEAEAFYNTALLLAEIILEKGGSEEVASYIEAIAGATLYKIEQK
B5: GBRAP_160_4504 (protein)
chain: MEKLEEAKKEIDRIAEITIEAMKEVSDEDAVKIFEAGALDMIEYLREEYGISEEAEEELIEKLDELAAELKSIENLTDEDIEAAVNDFRDFAIKLLEEKS
B6: GBRAP_52_6261 (protein)
chain: MEEELRKKVEEALELVKEGKEEEARELLEKLARELNEEEFELFVREFAKLAEEAPAEDIEAVERLVELAEEEFEEAGKPEELVSLLAAEGYGAIYKRKQA
B7: GBRAP_160_4171 (protein)
chain: SETLEEAIEEIDEIFEEAVEMMRGQTAEERAAIARVAFGEIILLLEEKGLLTDELDEHIDEVEDRVVSYILAHPDLTDEELRELMEEARDEIIEALKKSS
B8: GBRAP_9_7164 (protein)
chain: SKEVKEKILEIVKEALEEMIEVVPEEVKPLAKKLAEEALKELEKAVKDEKVTVEEFAKLAKEKLKKVAEELKKKVSPEVAKQIEAIRLTAIEEIEEVVEE
B9: GBRAP_128_3268 (protein)
chain: MDPEVVEYAKEAVERIKTSSPEERKKIAEEFAKWLLESSLEDAEQAVEVVEERLHELSVEDLDILADALRKHRPKADPEKANLLADLEVEALNEAEEKEE
B10: GBRAP_166_4925 (protein)
chain: MIEEKVEEARKRLEEVIREGRADPSLTDGQITAAMAYEVAEMLKDIEDEEEKLAVVEEGLRLAKEEGLDPRRLATLTASLYGFSDEERERIDEITEKILA
B11: GBRAP_52_6173 (protein)
chain: MEARARAAAEALLAAIRAGRWEEVRKLLREAAETFNEEEITLMWDIVAERVPELSPADQERVVEAALEAEDILIEAGHDENLASYQTARVAGAAYAALQA
B12: GBRAP_83_6903 (protein)
chain: AEKIVVATHSDRAEEMADAVIDLTKEEGYEVSVAVFVTPEGIEKVLEAVRRLAEEGIEVELEIVAVGMTEEEIERLREEIERIAEEYGVNIEVTIHRLEP
B13: GBRAP_122_2960 (protein)
chain: AAEAAALAAALAALDAAADKPLSDVVATAMAALAAATSEEAKRAIIERAAAIISKKVPKVSEEEVREILEEARRLMEEEGATAAEAAAFADVEILDLEME
B14: GBRAP_43_5775 (protein)
chain: SKELVEGALDTAKLMAENPEIPDEQKVKAIQAAFDLAADEGYVDEELVEEVIDAANKSLSAEALEKIAEHLKELAKKYPEFKEVFEKARKKVEEAIKKKK
B15: GBRAP_160_4156 (protein)
chain: SEELEKLIKEIKEIAEESIKLMEGETSEEAKTIAKVAFGDILLEVEENPAVSEETLEEIGKVADEAEAYLDANPDLTVEEVQKILKETAKKVIEILEKEK
B16: GBRAP_95_7051 (protein)
chain: EDDQLALESTFEVLETYLDLGDEEAARRAAREAVELLKELGWDAVPDDISLESAELLVREAAEHLSPEDVEALTEALVAKAKTEEDKERIRAVAEEALAA
B17: GBRAP_83_6900 (protein)
chain: KEKIVVATTADHIDEAVDAAIDLHKEEGYEVELEVLATPEDFEKVKEGVERLAKAGLDIEVTIYLKGATKEEAEKLKKELEAIAKKHGANIKVEVILEEP
B18: GBRAP_53_6400 (protein)
chain: NKEKIEKLKKEVLELAKKATEADEEERKKLVKEIGKAFKELVKAGAPEEELTELAREVAKLLKEAGAPDSDLVELAKTFAELGLEEATAEVAEEAVEDLE
B19: GBRAP_117_2587 (protein)
chain: DPLRKEALEKVEELAKEVKEALEKEKTLSEEEKKELREKLLEKTEKLLKELREKLSEEEVDEIIEEVLAKLDAETYFRFESLVEEAEERIREEEEKEKEE
B20: GBRAP_74_6512 (protein)
chain: MEELLAKLKEAAEAKDVDKLVALALEIAETGDKETIEKAAEIVVAFVEANLDTLTPEELEKLSDALATLADKLMELGGDSEVVNRVAETAVALEKKLLAL
B21: GBRAP_160_4496 (protein)
chain: MEKEEKAIKEARELVELALEAILEEEGEGRRQIARAFAGDIALTLLELGVVSEEQEEEVLKLAEEMLEKVVEAAEKGEEEAKKAAEELKKKLEEKIKEFA
B22: GBRAP_160_4858 (protein)
chain: SEKLERALKILEEARDEALDLIDEAPGSQHAAFARAEADDALLELEEEGLVNDELEDELAAIIDELAARLEAAADASKEEHKAIVEEAYDRMMEAVRRLS
B23: GBRAP_186_5371 (protein)
chain: EEEAEKEIEEFIDEAAKKGYVISGVLEVKEFTEEAKKKIFDELEALAEFSAEFGYKGALIIKSTVSEEEFEELKKFVEEKRDELSKETGAEVEVKIVHVK
B24: GBRAP_11_2814 (protein)
chain: MKEEEKKAIEEIKKARELAKKLIEKEPGNEELLKELLKEAEKALELVKKHLSEAHKKDAEVALELVKEAAEDPENRLEYVKNARAAFDTLLANIEEELEE
B25: GBRAP_160_4371 (protein)
chain: KEALKKLAKEIEELKKEFLEEAKDLTPAEAVKLALGYLAEVAALVWENEAVSEEVEDKIFEIIDDAEARLRANADAPVEEIVAIATEAFDKIIELVKEEI
B26: GBRAP_128_3239 (protein)
chain: MDPEVRAEAERLIETIVTGTPEEAREATARLVELMATVDLEEAEEFAEMLKEALEKLTAEKLDVVADTLRENRGKLDPEKATLANDVEIEALNLAEEKEE
B27: GBRAP_184_5106 (protein)
chain: RVLEAVVEAETAEEAVAQLRAAVAEAAAAGAELVVLLDGKGLSTEELVEVIRAAGAAARAAGLPRVVIGIREPVDEEDLDRLLKAADEAGIQLVVALEEE
B28: GBRAP_14_3884 (protein)
chain: SEELKALYERNLAEFKAALARLRAAGLEAEAAAIEAELKAALAKAKAAGDLAAAAKAVGAAAARAEAAVLLHVEGVSEEEARAYERTEIANTEYEVDELV
B29: GBRAP_160_4608 (protein)
chain: MEKKKKFIEDVNKEFDETIKMIEGETIEQRANIVDVTIGQIIIEADELGVVSDESLDKIDAIRDETVAKILANPDLTDEEIKALINEARKKIIAIIEEDA

Target: GABARAP, O95166
Experiment: median log2 fold change of GCK-ALFA target abundance (FLAG IP / Myc IP barcode read proportion) (log2 ratio); each designed protein is fused to an ALFA-tag nanobody in HEK293 cells to bring the named protein to FLAG-tagged glucokinase (GCK); Myc marks an untargeted standard; higher = target protein stabilised (more abundant)
Settings: target protein: 3xFLAG-MCP-GCK-ALFA reporter; HEK293 landing pad (RPLP)
Procedure, shortened: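 The readout is target abundance, the per-binder median log2 ratio of FLAG to Myc barcode read proportions. It came from HEK293 landing-pad cells carrying a recombined ALFA-nanobody-fused binder library, induced with 2 μg mL^−1 doxycycline and transfected with a plasmid for a FLAG-tagged target and a Myc-tagged standard. After 48 h, lysates were immunoprecipitated with anti-FLAG and anti-Myc, and circular RNA barcodes were reverse transcribed, amplified and sequenced. Each barcode needed a proportion of at least 10^−7 in both replicates and each binder at least 3 barcodes per replicate, a pseudocount of 10^−6 was added, and the replicates were pooled.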

Chain of GABARAP, O95166 (O95166 whole entry, the tested form may be a part): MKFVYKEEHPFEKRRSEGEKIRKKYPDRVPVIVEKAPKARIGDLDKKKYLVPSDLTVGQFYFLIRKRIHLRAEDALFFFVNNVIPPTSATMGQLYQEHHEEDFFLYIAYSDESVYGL

Binder | median log2 fold change
B1 | 0.0278
B2 | -0.52
B3 | -0.000102
B4 | 0.137
B5 | -0.0506
B6 | 0.0514
B7 | -0.418
B8 | 0.295
B9 | 0.0419
B10 | 0.302
B11 | -0.321
B12 | 0.217
B13 | 0.133
B14 | 0.34
B15 | -0.303
B16 | 0.171
B17 | 0.14
B18 | 0.294
B19 | 0.216
B20 | 0.23
B21 | 0.245
B22 | -0.134
B23 | 0.163
B24 | 0.285
B25 | 0.0133
B26 | 0.225
B27 | 0.072
B28 | 0.18
B29 | 0.123
